# Reference: the supplement of paper PMC8728848
# This is one part of the list.
# B1: Pwp3 (Candida glabrata) (protein)
# chain: MGSSHHHHHHSSGLVPRGSHMASKNPVDFTTVCQFPDNFSKKPGFLATTARLGLWITGNSYKELLNYPGTFTLTTQQASTTTPNIQLRGTDLFTTIYGLTVYPLYLLVELQGYFVPTQSGMYTFSLTGSDDAAIIFIGNPSTFPCDAFKTWPQATANDITVTDSINPSRTLYMVKGVAYPLRIAYYNGLGNGVLNAAFTDPSGTKRTDWNGYIWQYDQCSTCTYK
# Tests used:
# Test in all cases: glycan array binding signal (z-score within array); higher = stronger binding
# Conditions in all cases: glycan notation: IUPAC condensed, linker removed
# Fuc(a1-2)Gal = target: Fuc(a1-2)Gal
# Outline: (§1)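 From the Consortium for Functional Glycomics database, 3228 arrays were curated, keeping only those whose protein sequence was available. Binding is given as a within-array Z-score averaged across arrays sharing a protein sequence and across linkers. Negative Z-scores can be read as non-binding.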
# Fuc(a1-2)Gal(b1-3)GalNAc = target: Fuc(a1-2)Gal(b1-3)GalNAc
# Outline: as §1
# [1] = target: Fuc(a1-2)Gal(b1-3)GalNAc(a1-3)[Fuc(a1-2)]Gal(b1-4)Glc
# Outline: as §1
# [2] = target: Fuc(a1-2)Gal(b1-3)GalNAc(a1-3)[Fuc(a1-2)]Gal(b1-4)GlcNAc
# Outline: as §1
# [3] = target: Fuc(a1-2)Gal(b1-3)GalNAc(b1-3)Gal
# Outline: as §1
# [4] = target: Fuc(a1-2)Gal(b1-3)GalNAc(b1-3)Gal(a1-4)Gal(b1-4)Glc
# Outline: as §1
# [5] = target: Fuc(a1-2)Gal(b1-3)GalNAc(b1-4)[Neu5Ac(a2-3)]Gal(b1-4)Glc
# Outline: as §1
# Fuc(a1-2)Gal(b1-3)GlcNAc = target: Fuc(a1-2)Gal(b1-3)GlcNAc
# Outline: as §1
# [6] = target: Fuc(a1-2)Gal(b1-3)GlcNAc(b1-2)Man(a1-3)[Fuc(a1-2)Gal(b1-3)GlcNAc(b1-2)Man(a1-6)]Man(b1-4)GlcNAc(b1-4)GlcNAc
# Outline: as §1
# [7] = target: Fuc(a1-2)Gal(b1-3)GlcNAc(b1-2)Man(a1-3)[Fuc(a1-2)Gal(b1-3)GlcNAc(b1-2)Man(a1-6)]Man(b1-4)GlcNAc(b1-4)[Fuc(a1-6)]GlcNAc
# Outline: as §1
# [8] = target: Fuc(a1-2)Gal(b1-3)GlcNAc(b1-3)Gal(b1-4)Glc
# Outline: as §1
# [9] = target: Fuc(a1-2)Gal(b1-3)GlcNAc(b1-3)GalNAc
# Outline: as §1
# [10] = target: Fuc(a1-2)Gal(b1-3)GlcNAc(b1-3)[Fuc(a1-2)Gal(b1-3)GlcNAc(b1-6)]GalNAc
# Outline: as §1
# [11] = target: Fuc(a1-2)Gal(b1-3)GlcNAc(b1-3)[Gal(b1-4)GlcNAc(b1-6)]Gal(b1-4)Glc
# Outline: as §1
# [12] = target: Fuc(a1-2)Gal(b1-3)GlcNAc(b1-3)[Neu5Ac(a2-6)Gal(b1-4)GlcNAc(b1-6)]Gal(b1-4)Glc
# Outline: as §1
# [13] = target: Fuc(a1-2)Gal(b1-3)GlcNAc6S
# Outline: as §1
# [14] = target: Fuc(a1-2)Gal(b1-3)[Fuc(a1-4)]GlcNAc
# Outline: as §1
# [15] = target: Fuc(a1-2)Gal(b1-3)[Fuc(a1-4)]GlcNAc(b1-2)Man(a1-3)[Fuc(a1-2)Gal(b1-3)[Fuc(a1-4)]GlcNAc(b1-2)Man(a1-3)]Man(b1-4)GlcNAc(b1-4)GlcNAc
# Outline: as §1
# [16] = target: Fuc(a1-2)Gal(b1-3)[Fuc(a1-4)]GlcNAc(b1-2)Man(a1-3)[Fuc(a1-2)Gal(b1-3)[Fuc(a1-4)]GlcNAc(b1-2)Man(a1-6)]Man(b1-4)GlcNAc(b1-4)[Fuc(a1-6)]GlcNAc(b1-4)[Fuc(a1-6)]GlcNAc
# Outline: as §1
# [17] = target: Fuc(a1-2)Gal(b1-3)[Fuc(a1-4)]GlcNAc(b1-3)[Fuc(a1-3)[Gal(b1-4)]GlcNAc(b1-6)]Gal(b1-4)Glc
# Outline: as §1
# [18] = target: Fuc(a1-2)Gal(b1-3)[Fuc(a1-4)]GlcNAc(b1-3)[Gal(b1-4)GlcNAc(b1-6)]Gal(b1-4)Glc
# Outline: as §1
# Fuc(a1-2)Gal(b1-4)Glc = target: Fuc(a1-2)Gal(b1-4)Glc
# Outline: as §1
# Fuc(a1-2)Gal(b1-4)Glc6S = target: Fuc(a1-2)Gal(b1-4)Glc6S
# Outline: as §1
# Fuc(a1-2)Gal(b1-4)GlcNAc = target: Fuc(a1-2)Gal(b1-4)GlcNAc
# Outline: as §1
# [19] = target: Fuc(a1-2)Gal(b1-4)GlcNAc(b1-2)Man
# Outline: as §1
# [20] = target: Fuc(a1-2)Gal(b1-4)GlcNAc(b1-2)Man(a1-3)[Fuc(a1-2)Gal(b1-4)GlcNAc(b1-2)Man(a1-6)]Man(b1-4)GlcNAc(b1-4)GlcNAc
# Outline: as §1
# [21] = target: Fuc(a1-2)Gal(b1-4)GlcNAc(b1-2)Man(a1-3)[Fuc(a1-2)Gal(b1-4)GlcNAc(b1-2)Man(a1-6)]Man(b1-4)GlcNAc(b1-4)[Fuc(a1-6)]GlcNAc
# Outline: as §1
# [22] = target: Fuc(a1-2)Gal(b1-4)GlcNAc(b1-2)[Fuc(a1-2)Gal(b1-4)GlcNAc(b1-4)]Man(a1-3)[Fuc(a1-2)Gal(b1-4)GlcNAc(b1-2)Man(a1-6)]Man(b1-4)GlcNAc(b1-4)GlcNAc
# Outline: as §1
# [23] = target: Fuc(a1-2)Gal(b1-4)GlcNAc(b1-3)Gal(b1-4)GlcNAc
# Outline: as §1
# [24] = target: Fuc(a1-2)Gal(b1-4)GlcNAc(b1-3)Gal(b1-4)GlcNAc(b1-2)Man(a1-3)[Fuc(a1-2)Gal(b1-4)GlcNAc(b1-3)Gal(b1-4)GlcNAc(b1-2)Man(a1-6)]Man(b1-4)GlcNAc(b1-4)GlcNAc
# Outline: as §1
# [25] = target: Fuc(a1-2)Gal(b1-4)GlcNAc(b1-3)Gal(b1-4)GlcNAc(b1-3)Gal(b1-4)GlcNAc
# Outline: as §1
# [26] = target: Fuc(a1-2)Gal(b1-4)GlcNAc(b1-3)GalNAc
# Outline: as §1
# [27] = target: Fuc(a1-2)Gal(b1-4)GlcNAc(b1-3)[Fuc(a1-2)Gal(b1-4)GlcNAc(b1-6)]GalNAc
# Outline: as §1
# [28] = target: Fuc(a1-2)Gal(b1-4)GlcNAc(b1-3)[Fuc(a1-3)[Gal(b1-4)]GlcNAc(b1-6)]Gal(b1-4)Glc
# Outline: as §1
# [29] = target: Fuc(a1-2)Gal(b1-4)GlcNAc(b1-6)GalNAc
# Outline: as §1
# [30] = target: Fuc(a1-2)Gal(b1-4)GlcNAc6S
# Outline: as §1
# [31] = target: Fuc(a1-2)Gal(b1-4)[Fuc(a1-3)]GlcNAc
# Outline: as §1
# [32] = target: Fuc(a1-2)Gal(b1-4)[Fuc(a1-3)]GlcNAc(b1-2)Man(a1-3)[Fuc(a1-2)Gal(b1-4)[Fuc(a1-3)]GlcNAc(b1-2)Man(a1-6)]Man(b1-4)GlcNAc(b1-4)[Fuc(a1-6)]GlcNAc
# Outline: as §1
# [33] = target: Fuc(a1-2)Gal(b1-4)[Fuc(a1-3)]GlcNAc(b1-2)[Fuc(a1-2)Gal(b1-4)[Fuc(a1-3)]GlcNAc(b1-4)]Man(a1-3)[Fuc(a1-2)Gal(b1-4)[Fuc(a1-3)]GlcNAc(b1-2)Man(a1-6)]Man(b1-4)GlcNAc(b1-4)GlcNAc
# Outline: as §1
# [34] = target: Fuc(a1-2)Gal(b1-4)[Fuc(a1-3)]GlcNAc(b1-3)Gal(b1-4)[Fuc(a1-3)]GlcNAc
# Outline: as §1
# [35] = target: Fuc(a1-2)Gal(b1-4)[Fuc(a1-3)]GlcNAc(b1-3)Gal(b1-4)[Fuc(a1-3)]GlcNAc(b1-3)Gal(b1-4)[Fuc(a1-3)]GlcNAc
# Outline: as §1
# [36] = target: Fuc(a1-2)Gal(b1-4)[Fuc(a1-3)]GlcNAc(b1-3)GalNAc
# Outline: as §1
# [37] = target: Fuc(a1-2)Gal(b1-4)[Fuc(a1-3)]GlcNAc(b1-3)[Neu5Ac(a2-6)Gal(b1-4)GlcNAc(b1-6)]Gal(b1-4)Glc
# Outline: as §1
# [38] = target: Fuc(a1-2)Gal3S(b1-4)GlcNAc
# Outline: as §1
# [39] = target: Fuc(a1-2)Gal6S(b1-3)GlcNAc
# Outline: as §1
binder,measurement,setting,value
B1,glycan array binding signal (z-score),Fuc(a1-2)Gal,-0.2
same,glycan array binding signal (z-score),Fuc(a1-2)Gal(b1-3)GalNAc,-0.278
same,glycan array binding signal (z-score),[1],-0.244
same,glycan array binding signal (z-score),[2],-0.193
same,glycan array binding signal (z-score),[3],-0.264
same,glycan array binding signal (z-score),[4],-0.289
same,glycan array binding signal (z-score),[5],1.11
same,glycan array binding signal (z-score),Fuc(a1-2)Gal(b1-3)GlcNAc,0.514
same,glycan array binding signal (z-score),[6],0.634
same,glycan array binding signal (z-score),[7],-0.575
same,glycan array binding signal (z-score),[8],-0.35
same,glycan array binding signal (z-score),[9],-0.269
same,glycan array binding signal (z-score),[10],-0.579
same,glycan array binding signal (z-score),[11],-0.395
same,glycan array binding signal (z-score),[12],0.149
same,glycan array binding signal (z-score),[13],-0.354
same,glycan array binding signal (z-score),[14],-0.092
same,glycan array binding signal (z-score),[15],-0.661
same,glycan array binding signal (z-score),[16],-0.34
same,glycan array binding signal (z-score),[17],-0.367
same,glycan array binding signal (z-score),[18],-0.178
same,glycan array binding signal (z-score),Fuc(a1-2)Gal(b1-4)Glc,-0.212
same,glycan array binding signal (z-score),Fuc(a1-2)Gal(b1-4)Glc6S,-0.442
same,glycan array binding signal (z-score),Fuc(a1-2)Gal(b1-4)GlcNAc,-0.402
same,glycan array binding signal (z-score),[19],-0.152
same,glycan array binding signal (z-score),[20],-0.499
same,glycan array binding signal (z-score),[21],-0.47
same,glycan array binding signal (z-score),[22],-0.356
same,glycan array binding signal (z-score),[23],-0.212
same,glycan array binding signal (z-score),[24],-0.363
same,glycan array binding signal (z-score),[25],-0.021
same,glycan array binding signal (z-score),[26],-0.321
same,glycan array binding signal (z-score),[27],-0.552
same,glycan array binding signal (z-score),[28],1.32
same,glycan array binding signal (z-score),[29],-0.453
same,glycan array binding signal (z-score),[30],-0.116
same,glycan array binding signal (z-score),[31],-1.06
same,glycan array binding signal (z-score),[32],-0.367
same,glycan array binding signal (z-score),[33],-0.262
same,glycan array binding signal (z-score),[34],0.07
same,glycan array binding signal (z-score),[35],-0.449
same,glycan array binding signal (z-score),[36],-0.317
same,glycan array binding signal (z-score),[37],-0.179
same,glycan array binding signal (z-score),[38],-0.232
same,glycan array binding signal (z-score),[39],-0.064
